Assay results taken from PubChem BioAssay AID1460 (National Center for Advancing Translational Sciences (NCATS), 2008).
Among all 270,000 compounds or so, about 5,800 (2.1%) were called active. Inconclusive results, whose numbers are uncertain, are shown with a selection of clear calls. Calls follow the shape of the dose curve; as a rule, active = well fitted inhibition curve with a large enough effect; inconclusive = small, poorly fitted or top-dose-only effect; inactive = flat fitted curve, though single readings scatter. Potencies beside an inconclusive call are fits to weak or partial responses and may not hold up.

These compounds were tested against Microtubule-associated protein tau (Homo sapiens) (UniProt P10636) (assay: qHTS for Inhibitors of Tau Fibril Formation, Thioflavin T Binding). Conditions: recombinant tau K18 P301L, heparin-induced fibrillization, ThT fluorescence; series mostly up to 57.4 µM; activity, negative = inhibition: at the top concentration.
Chain of UniProt P10636 (P10636 whole entry, looked up): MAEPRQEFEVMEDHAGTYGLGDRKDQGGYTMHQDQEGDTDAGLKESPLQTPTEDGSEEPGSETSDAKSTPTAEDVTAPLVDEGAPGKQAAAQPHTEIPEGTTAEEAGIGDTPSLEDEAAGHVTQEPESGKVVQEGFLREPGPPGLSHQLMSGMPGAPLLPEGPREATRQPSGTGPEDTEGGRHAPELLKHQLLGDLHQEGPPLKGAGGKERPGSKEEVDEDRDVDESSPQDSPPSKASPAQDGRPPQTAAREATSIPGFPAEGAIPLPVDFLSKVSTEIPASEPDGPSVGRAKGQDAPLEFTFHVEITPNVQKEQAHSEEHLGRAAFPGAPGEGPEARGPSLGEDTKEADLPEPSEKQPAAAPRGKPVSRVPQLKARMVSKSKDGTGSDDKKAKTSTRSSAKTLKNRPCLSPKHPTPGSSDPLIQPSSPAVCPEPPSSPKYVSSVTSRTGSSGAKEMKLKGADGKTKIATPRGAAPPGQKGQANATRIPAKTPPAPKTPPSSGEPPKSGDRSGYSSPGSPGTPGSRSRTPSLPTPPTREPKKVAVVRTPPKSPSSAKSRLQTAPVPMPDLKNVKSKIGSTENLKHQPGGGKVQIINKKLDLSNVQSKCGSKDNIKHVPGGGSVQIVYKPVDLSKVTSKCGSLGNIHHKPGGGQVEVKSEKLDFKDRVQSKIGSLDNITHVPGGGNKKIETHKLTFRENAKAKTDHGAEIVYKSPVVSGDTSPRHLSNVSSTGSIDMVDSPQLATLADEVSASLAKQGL
Method in brief: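 Using a mix of unlabeled (15 uM) and Alexa 594-labeled (0.24 uM) tau K18 P301L, heparin-triggered fibrillization over 6 hr at 37 C was scored by ThT fluorescence.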
% is scaled to controls: 0 for no effect and ±100 for the full control effect; potency is read from the fitted curve at half-maximal effect; tags tell the direction and shape of the fitted curve.
Also: nearly all actives have a fitted effect of over 55% in size.

Structure (SMILES) | Potency | activity, negative = inhibition
O=C1CC(c2ccco2)CC(O)=C1C=NCC1CCNCC1 (stereo not drawn) | inconclusive: 20 µM [inhibitor, single point] | 
COc1ccc(NC(=S)N/C(=N/CS(=O)(=O)c2ccccc2)c2ccccc2)cc1 | inconclusive: 31.6 µM [inhibitor, single point] | 
COc1ccc(N2CCN(c3nc4ccc(C)cc4n4nnnc34)CC2)cc1 | inconclusive: 14.1 µM [inhibitor, partial curve] | 
Oc1ccc(Cl)cc1C1=NCCNC(C(F)(F)C(F)F)=C1 | inconclusive: 25.1 µM [inhibitor, single point] | 
CCOc1ccc2c(c1)NC(c1cccs1)=NC(c1ccc(F)cc1)=N2 | inconclusive: 7.94 µM [inhibitor, full curve, poor fit] | 
Cc1cccc(-c2nsc(SCC(=O)N3CCCC3)n2)c1 |  | inactive: -17.2%
COc1cccc(CNCc2cccc(Br)c2)c1OC |  | inactive: -3.04%
COc1cc(C(C[N+](=O)[O-])c2c(C)[nH]c3ccccc23)ccc1O (stereo not drawn) | inconclusive: 22.4 µM [inhibitor, single point] | 
COCC(=O)N1CCN(c2ccc([N+](=O)[O-])cc2)CC1 | inconclusive: 4.47 µM [inhibitor, partial curve] | 
COc1ccc(CCNC(=O)CCc2c(C)c3cc4c(C)coc4c(C)c3oc2=O)cc1OC |  | inactive: -10.9%
COc1ccc(-c2nnc(C3CCN(S(=O)(=O)c4ccc(C)c(C)c4)CC3)o2)cc1 |  | inactive: -7.33%
CN(Cc1nc2ccc(Cl)cc2[nH]1)Cc1nc(-c2cnccn2)no1 | inconclusive: 25.1 µM [inhibitor, partial curve] | 
Cc1[nH]n(C)c(=O)c1C(=O)c1c(-c2c(Cl)cccc2Cl)noc1C | inconclusive: 25.1 µM [inhibitor, single point] | 
CC(C)CN1C(=S)SC(C)(C)C1n1oc(=O)n(-c2ccc(Cl)cc2)c1=O (stereo not drawn) |  | inactive: 2.07%
CC(=O)c1ccc(NC(=O)CC(c2cccs2)N2Cc3ccccc3C2=O)cc1 (stereo not drawn) | inconclusive: 31.6 µM [inhibitor, single point] | 
COC(=O)c1ccc(Oc2coc3cc(OCc4ccc([N+](=O)[O-])cc4)ccc3c2=O)cc1 | inconclusive: 7.08 µM [inhibitor, partial curve, poor fit] | 
COc1ccc(OCC(=O)N/N=C/c2ccc(N(C)C)cc2)cc1 | active: 2.51 µM | 
COc1ccc(Cc2nc3ccccc3n2Cc2ccccc2F)cc1 | inconclusive: 7.94 µM [inhibitor, full curve] | 
CCOc1ccc(-c2cc(-c3nc(-c4ccc(OC)c(OC)c4)no3)[nH]n2)cc1 | inconclusive: 25.1 µM [activator, single point] | 
Cc1cc(C)nc(SCC(=O)Oc2ccc3oc(=O)cc(C)c3c2)n1 | inconclusive: 15.8 µM [inhibitor, partial curve, poor fit] | 
O=C1NC(c2ccccc2)C(C(=O)c2cccs2)C(O)(C(F)(F)F)N1 (stereo not drawn) |  | inactive: -7.65%
Cc1ccc(-c2ccc(/C=C(\C#N)C(N)=S)o2)c([N+](=O)[O-])c1 | active: 3.98 µM | 
S=C(Nc1ccccc1)N1CCCCCCC1 |  | inactive: 4.14%

Structure (SMILES) | Potency | activity, negative = inhibition
CC(C)CNC(=O)c1cccc(NC(=O)c2ccc(Cl)c([N+](=O)[O-])c2)c1 |  | inactive: -14.7%
Cc1c(CCOC(=O)C23CC4(C)CC(C)(CC(C)(C4)C2)C3)sc[n+]1CC(=O)c1ccccc1 | inconclusive: 31.6 µM [inhibitor, single point] | 
COc1ccc(/C=C2\SC(=O)N(CC(=O)Nc3cccnc3)C2=O)cc1OC |  | inactive: -15.3%
COc1ccc(OC)c(C(=O)/C=C/c2ccccc2C(F)(F)F)c1 | inconclusive: 12.6 µM [inhibitor, partial curve] | 
COc1ccc(C(=O)CSc2nnc3n2CCCN3C(=O)Nc2ccccc2)cc1 |  | inactive: -16.9%
COc1ccc(N=C2C(=Nc3ccc(OC)cc3)N(c3ccccc3)C(=S)N2C(=O)c2ccc(Cl)cc2)cc1 | inconclusive: 15.8 µM [inhibitor, partial curve] | 
CCCc1ccc(-c2cc(NC(=O)CSc3nnc(N)s3)n(-c3ccccc3)n2)cc1 | inconclusive: 17.8 µM [inhibitor, single point] | 
CCOc1ccc2nc(NC(=O)C(CC)Sc3nc(C)cc(=O)[nH]3)sc2c1 (stereo not drawn) | inconclusive: 39.8 µM [inhibitor, single point] | 
O=C(COc1ccccc1-c1ccccc1)N/N=C/c1ccccn1 | inconclusive: 3.16 µM [inhibitor, partial curve, poor fit] | 
COc1cccc(C(=O)N/N=C/c2ccc(Oc3ccc([N+](=O)[O-])cn3)c(OC)c2)c1 | inconclusive: 35.5 µM [inhibitor, single point] | 
COC(=O)CN(Cc1ccccc1)S(=O)(=O)c1ccc(OC)c(OC)c1 | active: 15.8 µM | 
COc1ccc(C(=O)OCCOc2ccccc2C(C)=O)c(O)c1 | inconclusive: 20 µM [inhibitor, partial curve, poor fit] | 
CC(C)(C)NC(=O)COc1ccc(-c2ccccc2)cc1 | inconclusive: 6.31 µM [inhibitor, partial curve] | 
CCOCCCn1c(SCC(=O)NCc2ccco2)nc2c(sc3ccccc32)c1=O | inconclusive: 44.7 µM [inhibitor, single point] | 
Cc1cc2c(cc1S(=O)(=O)CCC(=O)NCCc1ccccc1)OCC(=O)N2 |  | inactive: -5.79%
CC(=O)OC[C@H]1O[C@@H](Sc2cccc3cccnc23)[C@H](OC(C)=O)[C@@H](OC(C)=O)[C@@H]1OC(C)=O | inconclusive: 17.8 µM [inhibitor, partial curve, poor fit] | 
CC(=O)N1CCN(c2ccc(NC(=S)NC(=O)c3ccccc3)cc2)CC1 | inconclusive: 7.08 µM [inhibitor, full curve] | 
COc1ccc2[nH]c3c(NCCC4=CCCCC4)ncnc3c2c1 | inconclusive: 5.01 µM [inhibitor, full curve] | 
O=C(CNC(=O)C1CCCCC1)OCc1cc(=O)oc2ccc3ccccc3c12 |  | inactive: -3.84%
COc1ccc(C(=O)Nc2cc3c(cc2OC)CCCC3)cc1Br | inconclusive: 6.31 µM [inhibitor, full curve] | 
C/C(=N\Nc1nc2ccccc2[nH]1)c1cc2ccccc2o1 | active: 14.1 µM | 
CC1=C(C(=O)Nc2ccccc2)C(c2cccs2)C(C#N)=C(SCC#N)N1 (stereo not drawn) | inconclusive: 17.8 µM [inhibitor, partial curve] | 
Cc1cc(C)c(C#N)c(SCc2nc3ccccc3[nH]2)n1 | inconclusive: 17.8 µM [inhibitor, partial curve] | 

Structure (SMILES) | Potency | activity, negative = inhibition
CC(C)OC(=O)/C(C#N)=C/c1cn(C)c2ccccc12 | inconclusive: 39.8 µM [inhibitor, single point] | 
Cc1nncn1-c1ccc(C(=O)Nc2cc(F)ccc2F)cc1 |  | inactive: -6.27%
Cc1nc2ncnn2c(C)c1CCC(=O)N1CCc2ccccc2C1 |  | inactive: -7.57%
CC1(C)Cc2c(c(-c3ccco3)[nH]c(=O)c2C#N)CS1 | inconclusive: 35.5 µM [inhibitor, single point] | 
COc1ccc(N/C=C/c2nc(SC)nnc2C)cc1 | active: 3.16 µM | 
COc1cc(OC)c(OC)cc1CNc1sc2c(c1C(=O)Nc1ccccc1OC)CCC2 | inconclusive: 15.8 µM [inhibitor, partial curve] | 
O=C(Nc1ccc2nc(SCC(=O)N3CCc4ccccc43)sc2c1)c1cccc(Cl)c1 | inconclusive: 0.0891 µM [inhibitor, full curve, poor fit] | 
Cc1ccccc1NC(=O)CN1C(=O)S/C(=C\c2ccc(-c3cc(C(=O)O)ccc3C)o2)C1=O | inconclusive: 14.1 µM [inhibitor, partial curve, poor fit] | 
Cc1ccc(/C=N/Nc2ccc(C(=O)O)cc2)s1 | inconclusive: 12.6 µM [inhibitor, partial curve] | 
CCN(CC)c1ccc(NC(=O)c2sc3nc4c(cc3c2N)CN(C)CC4)cc1 | active: 1.26 µM | 
O=C1c2cccc3cc([N+](=O)[O-])cc(c23)C(=O)N1/N=C/c1ccc(O)cc1O | inconclusive: 15.8 µM [inhibitor, partial curve] | 
CCOC(=O)c1nn(-c2ccccc2C)c(=O)c(C#N)c1C | inconclusive: 22.4 µM [inhibitor, partial curve, poor fit] | 
Cc1ccc2c(c1)N(Cc1cccc(Cl)c1)C(=O)c1cccnc1O2 | inconclusive: 44.7 µM [inhibitor, single point] | 
C#C[C@]1(OC(C)=O)CCC2C3CCC4=CC(=O)CCC4C3CC[C@]21C (stereo partly drawn) | inconclusive: 31.6 µM [inhibitor, partial curve] | 
O=C(Nc1c(C(=O)N2CCN(c3ccccc3)CC2)oc2ccccc12)c1ccco1 | inconclusive: 8.91 µM [inhibitor, full curve] | 
CCCCOc1ccc(CSC(=N)N)cc1[N+](=O)[O-] | inconclusive: 25.1 µM [inhibitor, single point] | 
O=C(NC(=S)Nc1ccc(Cc2ccncc2)cc1)c1ccc(F)cc1 |  | inactive: -16.1%
COc1ccc2occ(C(=O)c3cccs3)c2c1 | inconclusive: 35.5 µM [inhibitor, partial curve] | 
O=C1NCCN(Cc2cccc(Oc3ccccc3)c2)C1CC(=O)N1CCCO1 (stereo not drawn) | inconclusive: 2 µM [inhibitor, partial curve] | 
CC(=O)N1N=C(c2cccc([N+](=O)[O-])c2)OC1c1ccc(Br)cc1 (stereo not drawn) |  | inactive: 2.21%
Cc1cccc(N2CCc3c2nc2ccc(Br)cc2c3N)c1 | active: 28.2 µM | 
COc1ccc(N2Cc3cccc(C(=O)Nc4ccc(F)cc4)c3C2=O)cc1 |  | inactive: -4.56%
